In PubChem BioAssay AID651820 (National Center for Advancing Translational Sciences (NCATS), 2012):
Values joined by “and” are separate entries in the source; they are usually repeats but may differ in a detail not shown here. Equal entries are not always repeated. Among all 340,000 compounds or so, about 12,000 (3.5%) were called active. The inconclusive results got no clear call from the source; some entries with a clear call stand among them for comparison. Calls follow the shape of the dose curve; as a rule, active = well fitted inhibition curve with a large enough effect; inconclusive = small, poorly fitted or top-dose-only effect, or another doubt; inactive = no such curve, though single readings can be large or run the other way. Potencies of inconclusive entries are doubtful fits and often do not repeat.

Test: qHTS Assay for Inhibitors of Hepatitis C Virus (HCV)
Details: Huh7.5.1 HCVcc-Cre (HCVcc is cell-culture hepatitis C virus) infection, luciferase reporter, 44 h; activity change, negative = inhibition: at 41.8 µM (top of the series) unless noted
How it was run: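 Cells seeded at 1,000/well and cultured 4 h, then compounds added followed by HCVcc-Cre virus (~0.5 moi). After 44 h further culture, luciferase substrate was added, plates held 15 min at room temperature, and luminescence read for 15 sec.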
% is scaled to controls: 0 for no effect and ±100 for the full control effect; potency is read from the fitted curve at half-maximal effect; tags tell the direction and shape of the fitted curve.

Compound | Potency | activity change, negative = inhibition
CCOc1ccccc1/C=N/NC(=O)c1nnn(-c2nonc2N)c1CN1CCCC1 | inconclusive: 8.91 µM [inhibitor, partial curve] | –
O=C(COc1ccc(Nc2ccccc2)cc1)OCC(=O)N1CCCCC1 | – | inactive: 10.2%
CN(C)c1ccc(C(=O)OCC(=O)NCC2CCCO2)cc1 (stereo not drawn) | – | inactive: -0.871%
COc1ccc(N2CCN(C(=O)CN3C(=O)NC(C)(c4ccc5ccccc5c4)C3=O)CC2)cc1 (stereo not drawn) | inconclusive: 14.1 µM [inhibitor, single point] | –
O=C(Nc1nc(-c2ccc(S(=O)(=O)N3CCCCCC3)cc2)cs1)c1cccs1 | inconclusive: 5.01 µM [inhibitor, full curve] and inconclusive: 25.1 µM [inhibitor, single point] | –
CC(=O)Nc1ccccc1OCCOc1ccc(Br)cc1 | inconclusive: 31.6 µM [inhibitor, single point] | –
CCOc1ccc(NC(=O)Cc2cccc3ccccc23)c([N+](=O)[O-])c1 | – | inactive: -0.783%
CCCCC(CC)C(=O)Nc1cc(C(=O)NCCC)ccc1N1CCC2(CC1)CC(c1ccccc1)=NO2 (stereo not drawn) | inconclusive: 10 µM [inhibitor, partial curve] | –
COC(=O)Nc1nc(-c2ccc(F)cc2)c(C)s1 | inconclusive: 10 µM [inhibitor, single point] | –
Cc1cc(O)c(-c2n[nH]c3c2C(c2cccc(O)c2)N(Cc2cccnc2)C3=O)cc1Cl (stereo not drawn) | inconclusive: 14.1 µM [inhibitor, single point] | –
COc1ccc(C2N3CC4(C)CN2CC(C)(C3)C4O)cc1 (stereo not drawn) | – | inactive: 9.19%
COc1cc(OC)cc(C(C(=O)NC2CCCCC2)N(C(=O)c2ccno2)c2ccccc2)c1 (stereo not drawn) | – | inactive: 2.84%
Cc1cc(C)c2c(=O)n(CC(=O)Nc3cccc(F)c3)sc2n1 | inconclusive: 31.6 µM [inhibitor, single point] | –
CCN(CC)S(=O)(=O)c1ccc(N2CCOCC2)c(NC(=O)CN2C(=O)NC(C)(c3ccccc3)C2=O)c1 (stereo not drawn) | – | inconclusive: -32.6% [inhibitor]
CCOc1ncccc1C(=O)OCC(=O)Nc1ccc(C)c(S(=O)(=O)N2CCOCC2)c1 | active: 2.82 µM | –
Cc1cc(C(=O)OCC(=O)NC(=O)NC(C)(C)C)c(C)o1 | inconclusive: 3.55 µM [inhibitor, single point] | –
O=S(=O)(c1ccccc1)c1cnc(-c2cccnc2)nc1-c1ccc(Cl)cc1Cl | inconclusive: 31.6 µM [inhibitor, single point] | –
O=C(NCCc1ccc2c(c1)OCCO2)c1cc(S(=O)(=O)N2CCCC2)ccc1Br | inconclusive: 12.6 µM [inhibitor, single point] | –
